Source: publication PMC7722926
No constants are given. Whether binding was seen depends on the method and setting. In cells and extracts the contact can be indirect. Some binding calls cover weakened binding; strength is not graded here. For part of these data: Where a sequence is shown, tags or fusion partners need not be part of it.

The chains behind the UniProt entries cited, without tags or fusion partners. Where a name states a change or a piece, a line headed by the entry shows the natural chain unless it says otherwise.
UniProt Q92993: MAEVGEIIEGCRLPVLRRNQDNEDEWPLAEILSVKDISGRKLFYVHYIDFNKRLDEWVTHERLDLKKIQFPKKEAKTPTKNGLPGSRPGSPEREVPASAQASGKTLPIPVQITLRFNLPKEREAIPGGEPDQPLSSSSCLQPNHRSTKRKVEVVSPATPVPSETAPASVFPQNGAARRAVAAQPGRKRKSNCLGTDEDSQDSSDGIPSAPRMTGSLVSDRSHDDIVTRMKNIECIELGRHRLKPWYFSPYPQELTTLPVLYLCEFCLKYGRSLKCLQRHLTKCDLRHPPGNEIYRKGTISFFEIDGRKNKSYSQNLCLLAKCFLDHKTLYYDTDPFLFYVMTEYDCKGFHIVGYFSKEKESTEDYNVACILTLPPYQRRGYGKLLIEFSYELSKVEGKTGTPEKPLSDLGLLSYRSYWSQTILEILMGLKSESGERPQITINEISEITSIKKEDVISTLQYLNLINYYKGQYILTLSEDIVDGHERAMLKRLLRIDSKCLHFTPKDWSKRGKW
UniProt P16220: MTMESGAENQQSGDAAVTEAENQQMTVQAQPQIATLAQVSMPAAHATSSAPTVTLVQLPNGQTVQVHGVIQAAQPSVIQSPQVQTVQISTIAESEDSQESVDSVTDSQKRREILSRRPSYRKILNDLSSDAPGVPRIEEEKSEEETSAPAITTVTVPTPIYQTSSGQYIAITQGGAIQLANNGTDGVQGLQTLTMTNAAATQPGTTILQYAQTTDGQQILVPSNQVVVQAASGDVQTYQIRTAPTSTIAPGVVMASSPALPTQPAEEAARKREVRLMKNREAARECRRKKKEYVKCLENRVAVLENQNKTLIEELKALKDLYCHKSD
UniProt P19484: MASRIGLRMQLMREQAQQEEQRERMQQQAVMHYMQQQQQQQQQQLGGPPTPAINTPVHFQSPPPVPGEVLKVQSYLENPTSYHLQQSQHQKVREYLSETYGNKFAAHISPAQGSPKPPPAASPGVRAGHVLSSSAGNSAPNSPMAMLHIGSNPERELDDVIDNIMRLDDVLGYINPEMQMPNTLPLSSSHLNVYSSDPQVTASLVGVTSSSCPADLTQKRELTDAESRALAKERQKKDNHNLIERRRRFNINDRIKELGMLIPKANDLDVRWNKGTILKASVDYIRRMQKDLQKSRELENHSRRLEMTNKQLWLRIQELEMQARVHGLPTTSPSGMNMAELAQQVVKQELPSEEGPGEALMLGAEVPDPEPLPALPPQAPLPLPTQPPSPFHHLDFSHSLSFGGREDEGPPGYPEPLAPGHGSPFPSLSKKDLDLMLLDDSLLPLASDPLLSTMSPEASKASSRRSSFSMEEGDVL
UniProt Q9Y265: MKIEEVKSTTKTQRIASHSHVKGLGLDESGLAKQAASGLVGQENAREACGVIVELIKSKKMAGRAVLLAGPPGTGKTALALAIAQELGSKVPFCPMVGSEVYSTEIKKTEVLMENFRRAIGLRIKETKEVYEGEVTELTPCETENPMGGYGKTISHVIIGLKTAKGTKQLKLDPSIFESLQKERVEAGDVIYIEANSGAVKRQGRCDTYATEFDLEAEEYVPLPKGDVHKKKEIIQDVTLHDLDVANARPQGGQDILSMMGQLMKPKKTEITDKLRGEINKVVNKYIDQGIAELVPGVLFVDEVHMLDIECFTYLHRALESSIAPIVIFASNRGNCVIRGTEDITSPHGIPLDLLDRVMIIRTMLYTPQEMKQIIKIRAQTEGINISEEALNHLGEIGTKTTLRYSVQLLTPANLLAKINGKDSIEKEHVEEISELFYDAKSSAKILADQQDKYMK
UniProt P60122: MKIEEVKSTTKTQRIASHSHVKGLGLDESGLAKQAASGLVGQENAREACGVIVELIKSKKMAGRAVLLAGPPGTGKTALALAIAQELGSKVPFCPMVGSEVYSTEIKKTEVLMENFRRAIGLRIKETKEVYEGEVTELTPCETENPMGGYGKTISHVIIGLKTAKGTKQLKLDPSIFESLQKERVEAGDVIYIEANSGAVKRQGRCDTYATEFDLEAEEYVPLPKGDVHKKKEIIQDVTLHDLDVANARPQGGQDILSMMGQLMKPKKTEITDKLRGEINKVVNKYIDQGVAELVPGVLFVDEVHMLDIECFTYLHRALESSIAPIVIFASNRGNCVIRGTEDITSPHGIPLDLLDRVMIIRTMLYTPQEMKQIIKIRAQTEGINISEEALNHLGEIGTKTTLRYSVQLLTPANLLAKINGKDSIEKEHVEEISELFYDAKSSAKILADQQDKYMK

Assays:
[1] = target: Tip60 histone acetyltransferase (UniProt Q92993); assay: co-IP; FOXO3a and Tip60 in the absence or presence of Pontin (Fig. 6f); cells not given
[2] = target: FOXO3a (in MEFs) (mouse (endogenous in MEFs)) (UniProt Q9WVH4); assay: co-IP; MEFs (Pontin WT, RK or RA-expressing; WT or Carm1-/-), whole lysates or nuclear extracts, glucose starvation; also after CARM1 inhibitors EZM2302 (100 nM) and EPZ025654 (100 nM) for 96 h
[3] = target: T1, CARM1 (endogenous, HeLa) (human (endogenous in HeLa)) (UniProt Q86X55); assay: co-IP; endogenous proteins in HeLa cells, glucose starvation for 18 h
T1 sequence: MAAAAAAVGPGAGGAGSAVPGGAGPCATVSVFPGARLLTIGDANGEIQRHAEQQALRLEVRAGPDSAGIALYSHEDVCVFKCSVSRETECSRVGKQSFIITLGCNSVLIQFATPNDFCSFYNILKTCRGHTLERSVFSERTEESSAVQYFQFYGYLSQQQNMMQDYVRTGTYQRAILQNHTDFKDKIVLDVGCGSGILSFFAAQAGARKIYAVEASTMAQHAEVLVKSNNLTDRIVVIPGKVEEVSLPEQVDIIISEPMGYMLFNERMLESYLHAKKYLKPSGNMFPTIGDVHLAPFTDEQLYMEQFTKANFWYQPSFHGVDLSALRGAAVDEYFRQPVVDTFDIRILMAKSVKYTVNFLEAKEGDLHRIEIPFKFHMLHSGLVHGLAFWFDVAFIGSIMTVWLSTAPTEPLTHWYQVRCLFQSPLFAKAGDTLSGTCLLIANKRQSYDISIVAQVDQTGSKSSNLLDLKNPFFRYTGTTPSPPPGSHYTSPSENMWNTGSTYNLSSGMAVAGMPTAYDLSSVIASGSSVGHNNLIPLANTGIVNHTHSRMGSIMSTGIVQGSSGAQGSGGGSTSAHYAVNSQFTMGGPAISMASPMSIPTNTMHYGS

[4] = target: Tip60 histone acetyltransferase (UniProt Q92993); assay: co-IP; Tip60 and Pontin WT or RK mutants in the absence or presence of glucose starvation (Fig. 6g); cells not given
[5] = target: T2, Flag-tagged CARM1 (coactivator-associated arginine methyltransferase 1) (UniProt Q86X55); assay: co-IP; immunoblot of the eluate of the Flag-CARM1 affinity purification from HEK293T cells
T2 sequence: T1 sequence

[6] = target: T3, glutathione S-transferase (GST)-tagged CARM1 (UniProt Q86X55); assay: pull-down; GST-CARM1 with in vitro translated Pontin or Reptin; 125 mM NaCl, 20 mM Tris pH 7.5, 10% glycerol, 0.1% NP-40, 0.5 mM DTT; only the target purified
T3 sequence: T1 sequence

[7] = target: FOXO3a F640L mutant (UniProt O43524); assay: co-IP; Pontin with FOXO3a WT, truncated proteins or mutants following glucose starvation (Fig. 5j, Supplementary Fig. 7a, 7b, 7e); cells not given
[8] = target: FOXO3a 3A (M624A, I627A, and I628A) mutant (in cells) (UniProt O43524); assay: as above
[9] = target: FOXO3a F642L mutant (UniProt O43524); assay: as above
[10] = target: T4, FOXO3a C terminus (418–673 a.a.), truncated protein in cells (UniProt O43524); assay: as above
T4 sequence: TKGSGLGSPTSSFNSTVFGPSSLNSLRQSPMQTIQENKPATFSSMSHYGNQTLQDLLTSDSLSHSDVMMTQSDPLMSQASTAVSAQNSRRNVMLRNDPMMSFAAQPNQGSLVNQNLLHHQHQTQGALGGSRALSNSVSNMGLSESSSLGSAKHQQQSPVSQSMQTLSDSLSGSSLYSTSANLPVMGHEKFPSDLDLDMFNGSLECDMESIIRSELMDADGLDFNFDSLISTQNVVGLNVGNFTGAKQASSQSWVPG

[11] = target: T5, CR3 domain of FOXO3a (610–650 amino acids) (UniProt O43524); assay: as above
T5 sequence: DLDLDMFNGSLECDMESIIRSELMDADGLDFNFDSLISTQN

[12] = target: T6, PPARα (UniProt Q07869); assay: co-IP; Pontin and various autophagy-related transcription factors upon glucose starvation (Fig. 5c); cells not given
T6 sequence: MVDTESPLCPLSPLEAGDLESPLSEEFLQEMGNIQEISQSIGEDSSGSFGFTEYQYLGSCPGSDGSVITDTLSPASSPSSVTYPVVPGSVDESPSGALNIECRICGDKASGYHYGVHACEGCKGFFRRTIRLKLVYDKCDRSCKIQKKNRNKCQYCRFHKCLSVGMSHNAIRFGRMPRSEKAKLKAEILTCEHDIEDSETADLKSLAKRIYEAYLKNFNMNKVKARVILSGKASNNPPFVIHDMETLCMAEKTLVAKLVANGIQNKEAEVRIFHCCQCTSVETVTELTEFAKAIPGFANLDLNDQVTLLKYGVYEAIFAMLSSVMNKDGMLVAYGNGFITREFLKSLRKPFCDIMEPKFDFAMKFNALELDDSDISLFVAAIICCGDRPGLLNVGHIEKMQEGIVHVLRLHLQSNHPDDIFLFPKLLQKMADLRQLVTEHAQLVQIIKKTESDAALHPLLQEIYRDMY

[13] = target: CREB (UniProt P16220); assay: as above
[14] = target: TFEB (transcription factor EB) (UniProt P19484); assay: as above

Substance: FOXO3a WT (Forkhead Box O 3a; in cells, construct not stated) (from UniProt O43524 1-673)
- binding [1]: binds

Substance: 3× Flag-Pontin WT (stably expressed in Pontin^f/f MEFs) (from UniProt Q9Y265 1-456)
- binding [2]: binds

Substance: endogenous Pontin (HeLa) (from UniProt Q9Y265 1-456)
- binding [3]: binds

Substance: Pontin (in WT MEFs) (from UniProt P60122 1-456)
- binding [2]: binds

Substance: Pontin R333K/R339K (RK) mutant (construct and cells not stated) (from UniProt Q9Y265 1-456)
- binding [4]: binds

Substance: Pontin chromatin-remodeling factor (endogenous, HEK293T) (from UniProt Q9Y265 1-456)
- binding [5]: binds

Substance: 3× Flag-Pontin R333A/R339A (RA) mutant (stably expressed in Pontin^f/f MEFs) (from UniProt Q9Y265 1-456)
- binding [2]: no binding

Substance: in vitro translated Pontin (from UniProt Q9Y265 1-456)
- binding [6]: binds

Substance: Pontin WT (construct and cells not stated) (from UniProt Q9Y265 1-456)
- binding [4]: binds
- binding [7]: binds
- binding [8]: no binding
- binding [9]: binds
- binding [10]: binds
- binding [11]: binds
- binding [12]: no binding
- binding [13]: no binding
- binding [14]: no binding

Substance: 3× Flag-Pontin R333K/R339K (RK) mutant (stably expressed in Pontin^f/f MEFs) (from UniProt Q9Y265 1-456)
- binding [2]: no binding
